These are yes or no findings as the source states them, for the method shown. Binding seen in cells or lysates may run through a third protein. Some binding calls cover weakened binding; strength is not graded here. Values belong to the substance of their own block, whether it stands above or below them.
Tests used:
[1] = target: MAVS (endogenous) (human (endogenous in HepG2, HepG2.2.15, Huh7)) (UniProt Q7Z434); assay: co-IP; immunoprecipitation of endogenous MAVS from untreated HepG2 cells (also HepG2.2.15 and Huh7); blot for HSP90A
[2] = target: MAVS (endogenous) (human (endogenous in HepG2, HepG2.2.15, Huh7)) (UniProt Q7Z434); assay: condition: only cells treated with 0.5 μM 17-AAG for 24 h; co-IP; immunoprecipitation of endogenous MAVS from HepG2 cells (also HepG2.2.15 and Huh7) treated with 0.5 μM 17-AAG for 24 h; blot for HSP90A
MAVS-His = MAVS-His (UniProt Q7Z434); assay: co-IP; vector or KNG1-Flag co-transfected into HepG2 cells with pHBV and MAVS-His or HSP90A-His (also HepG2.2.15; Huh7 with HSP90A-His); lysates incubated with anti-His antibody and Protein A + G agarose
[3] = target: MAVS (endogenous) (human (endogenous in HepG2, HepG2.2.15, Huh7)) (UniProt Q7Z434); assay: co-IP; vector or KNG1-Flag co-transfected into Huh7 cells with pHBV; lysates incubated with anti-MAVS antibody and Protein A + G agarose
[4] = target: HSP90A-His (PCAGGS-HSP90A-His) (UniProt P07900); assay: co-IP; HepG2.2.15 cells co-transfected with HSP90A-His along with KNG1-Flag or MAVS-Flag; immunoprecipitated and immunoblotted with indicated antibodies
[5] = target: KNG1-Flag (pcDNA3.1-KNG1-3 × Flag) (human) (UniProt P01042); assay: co-IP; HepG2.2.15 cells transfected with KNG1-Flag for 48 h; lysates incubated with anti-Flag agarose; immunoblot
[6] = target: HSP90A-His (PCAGGS-HSP90A-His) (UniProt P07900); assay: co-IP; vector or KNG1-Flag co-transfected into HepG2 cells with pHBV and MAVS-His or HSP90A-His (also HepG2.2.15; Huh7 with HSP90A-His); lysates incubated with anti-His antibody and Protein A + G agarose

Chains of the proteins cited; added tags and fusions are not shown. Residues count along the entry.
UniProt Q7Z434: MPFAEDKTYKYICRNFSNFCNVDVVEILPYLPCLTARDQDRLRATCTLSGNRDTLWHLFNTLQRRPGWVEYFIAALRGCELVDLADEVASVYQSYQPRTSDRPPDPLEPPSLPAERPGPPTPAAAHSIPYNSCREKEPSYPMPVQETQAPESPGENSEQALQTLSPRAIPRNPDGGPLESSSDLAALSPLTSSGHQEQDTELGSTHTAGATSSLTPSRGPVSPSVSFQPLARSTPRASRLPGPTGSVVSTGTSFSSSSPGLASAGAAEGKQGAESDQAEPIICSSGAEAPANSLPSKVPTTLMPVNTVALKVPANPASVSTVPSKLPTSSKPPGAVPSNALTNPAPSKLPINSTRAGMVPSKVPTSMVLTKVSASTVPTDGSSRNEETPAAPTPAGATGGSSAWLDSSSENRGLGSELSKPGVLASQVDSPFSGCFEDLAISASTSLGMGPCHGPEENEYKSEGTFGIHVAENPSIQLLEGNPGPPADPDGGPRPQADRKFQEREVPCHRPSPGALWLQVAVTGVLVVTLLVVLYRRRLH
UniProt P01042, residues 19-644: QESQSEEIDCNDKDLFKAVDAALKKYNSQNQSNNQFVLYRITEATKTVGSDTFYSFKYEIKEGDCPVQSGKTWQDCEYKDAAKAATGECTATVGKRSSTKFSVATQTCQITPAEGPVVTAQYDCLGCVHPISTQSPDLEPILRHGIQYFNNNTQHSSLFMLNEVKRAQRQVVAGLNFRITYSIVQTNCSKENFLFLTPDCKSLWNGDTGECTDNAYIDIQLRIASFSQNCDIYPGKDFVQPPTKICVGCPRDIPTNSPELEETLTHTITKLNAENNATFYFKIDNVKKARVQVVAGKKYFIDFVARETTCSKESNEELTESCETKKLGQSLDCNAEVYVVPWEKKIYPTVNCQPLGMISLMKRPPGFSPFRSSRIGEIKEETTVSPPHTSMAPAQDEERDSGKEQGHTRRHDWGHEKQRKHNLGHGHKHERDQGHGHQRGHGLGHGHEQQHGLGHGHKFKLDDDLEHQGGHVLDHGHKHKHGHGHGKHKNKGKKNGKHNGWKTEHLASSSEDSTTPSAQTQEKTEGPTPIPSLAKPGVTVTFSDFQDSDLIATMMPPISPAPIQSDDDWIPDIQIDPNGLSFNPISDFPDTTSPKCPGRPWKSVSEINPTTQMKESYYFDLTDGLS

binding [1]: binds
binding [2]: no binding
binding (MAVS-His): binds
binding [3]: binds
Substance: HSP90A (endogenous) (from UniProt P07900 1-732)

binding [4]: binds
Substance: KNG1-Flag (pcDNA3.1-KNG1-3 × Flag) (from UniProt P01042 19-644)

binding [5]: binds
binding [6]: binds
Substance: MAVS (endogenous) (from UniProt Q7Z434 1-540)

binding [4]: binds
Substance: MAVS-Flag (pcDNA3.1-MAVS-Flag) (from UniProt Q7Z434 1-540)
